From the antibiotic and cytotoxicity screens of Wong et al. (2023)
Some of the results follow.

Each compound was assayed on HSkMC (human skeletal muscle cells) (assay: cytotoxicity call (relative viability < 0.9)). Settings: 10 µM.

Compound | cytotoxicity call
C[C@@H]1CN([C@H](C)CO)C(=O)Cc2cc(NC(=O)Cn3cnnn3)ccc2O[C@H]1CN(C)Cc1ccc(C(=O)Nc2ccccc2N)cc1 | inactive
NC(=O)N1C(=O)[C@H]2[C@H](C1=O)[C@H]1C=C(CCCO)[C@@H]2[C@@H](C2CC2)N1Cc1cc2c(cc1Br)OCO2 | inactive
COCc1cn(CC[C@H]2CC[C@@H](NC(=O)CCN3CCCCC3)[C@@H](CO)O2)nn1 | inactive
C[C@@H]1CN([C@@H](C)CO)C(=O)c2cc(NC(=O)c3ccncc3)ccc2O[C@@H](C)CCCCO[C@@H]1CN(C)CC1CCCCC1 | inactive
C[C@H]1CCCCO[C@H](CN(C)C(=O)NC2CCCCC2)[C@@H](C)CN([C@@H](C)CO)C(=O)c2cc(NS(=O)(=O)c3ccccc3)ccc2O1 | inactive
CN1C(=O)c2cc(NC(=O)C3CCOCC3)ccc2OC[C@H]2O[C@H](CC(=O)NCCc3ccncc3)CC[C@H]21 | inactive
Cc1noc(C)c1S(=O)(=O)N(C)C[C@H]1OCCCC[C@@H](C)Oc2ccc(NS(=O)(=O)c3cn(C)cn3)cc2C(=O)N([C@@H](C)CO)C[C@H]1C | inactive
C/C(=C\CC[C@@H](C)[C@H]1C[C@@H](O)[C@@]2(C)[C@H]3CC[C@H]4C(C)(C)[C@@H](O[C@@H]5O[C@@H](CO[C@H]6O[C@@H](CO)[C@@H](O)[C@@H](O)[C@@H]6O)[C@@H](O)[C@@H](O)[C@@H]5O)CC[C@@]45C[C@@]35C[C@@H](O)[C@]12C)C(=O)O[C@H]1O[C@@H](CO)[C@@H](O)[C@@H]1O | inactive
C[C@H](CO)N1C[C@H](C)[C@H](CN(C)C(=O)c2ccccc2)OCCCC[C@H](C)Oc2ccc(NC(=O)CCC(F)(F)F)cc2C1=O | inactive
COC(=O)CN[C@H]1CCS(=O)(=O)C1 | inactive
C[C@@H]1CN([C@H](C)CO)C(=O)c2cccc(NS(=O)(=O)c3ccccc3)c2O[C@H]1CN(C)C(=O)Nc1cccc2ccccc12 | inactive
O=C(Cn1c(=O)n(-c2ccccc2)c(=O)n1CC(=O)N1CCOCC1)N1CCOCC1 | inactive
C[C@@H]1CN([C@H](C)CO)C(=O)Cc2cc(NC(=O)CCC(F)(F)F)ccc2O[C@@H]1CN(C)S(C)(=O)=O | inactive
O=C(c1ccccc1Cl)N(c1ccc2oc(=O)sc2c1)S(=O)(=O)c1ccc(Br)cc1 | inactive
C[C@@H]1CN([C@@H](C)CO)C(=O)c2cccc(NS(C)(=O)=O)c2O[C@H]1CN(C)Cc1ccc(C(=O)Nc2ccccc2N)cc1 | inactive
C/C=C/C(=O)N1CCC=CC1=O | inactive
Cc1noc(C)c1S(=O)(=O)Nc1ccc2c(c1)CC(=O)N([C@H](C)CO)C[C@@H](C)[C@@H](CN(C)S(=O)(=O)c1ccc(F)cc1)O2 | inactive
C[C@H](CO)N1C[C@H](C)[C@H](CN(C)C(=O)C2CCOCC2)Oc2cc(C#Cc3ccncc3)ccc2S1(=O)=O | inactive
CCC(=O)Nc1ccc2c(c1)C(=O)N(C)C[C@@H](OC)[C@@H](C)CN(C(=O)CN1CCOCC1)[C@H](C)CO2 | inactive
Cc1noc(C)c1NC(=O)N(C)C[C@@H]1OCCCC[C@@H](C)Oc2ccc(NC(=O)C3CCCCC3)cc2C(=O)N([C@@H](C)CO)C[C@@H]1C | inactive
Cc1noc(C)c1S(=O)(=O)Nc1ccc2c(c1)C(=O)N([C@@H](C)CO)C[C@H](C)[C@@H](CN(C)C)OCCCC[C@@H](C)O2 | inactive
C[C@H]1CCCCO[C@@H](CN(C)C(=O)Nc2ccccc2)[C@@H](C)CN([C@@H](C)CO)C(=O)c2cc(NC(=O)Cc3ccccc3)ccc2O1 | inactive
Cn1cnc(S(=O)(=O)N[C@@H]2C=C[C@@H](CC(=O)Nc3ccccc3)O[C@@H]2CO)c1 | inactive
[N-]=[N+]=Nc1ccccc1[C@@H]1OC(c2ccc(OCCCO)cc2)=N[C@]1(CCS(=O)(=O)c1ccccc1)C(=O)NCc1ccccc1 | inactive
C[C@@H]1CCCCO[C@H](CN(C)Cc2ccc(C(=O)O)cc2)[C@H](C)CN([C@H](C)CO)C(=O)c2cc(NC(=O)Nc3ccc4c(c3)OCO4)ccc2O1 | inactive
COc1ccc(S(=O)(=O)N(C)C[C@@H]2Oc3cc(C#CC4CC4)ccc3S(=O)(=O)N([C@H](C)CO)C[C@H]2C)cc1 | inactive
C[C@@H]1CCCCO[C@H](CN(C)CC2CCCCC2)[C@@H](C)CN([C@H](C)CO)C(=O)c2cc(NC(=O)NC3CCCCC3)ccc2O1 | inactive
CN1CCN(Cc2ccc(NC(=O)Nc3ccc(Oc4cc(NC(=O)C5CC5)ncn4)cc3)cc2C(F)(F)F)CC1 | active

These compounds were tested on HepG2 (assay: cytotoxicity call (relative viability < 0.9)). Settings: 10 µM.

Compound | cytotoxicity call
Cc1noc(C)c1NC(=O)N(C)C[C@@H]1OCCCC[C@@H](C)Oc2ccc(NS(=O)(=O)c3ccc(Cl)cc3)cc2C(=O)N([C@@H](C)CO)C[C@H]1C | inactive
C[C@@H]1CN([C@@H](C)CO)C(=O)c2cc(NC(=O)c3ccccc3)ccc2O[C@@H](C)CCCCO[C@@H]1CN(C)C(=O)NC1CCCCC1 | inactive
C[C@@H]1CC=CC[C@@H](c2cccc(Cl)c2)NC(=O)[C@@H](Cc2ccccc2)N(C)C(=O)c2ccccc2O1 | inactive
C[C@H](CO)N1C[C@H](C)[C@H](CN(C)C(=O)Nc2ccc(F)cc2)Oc2c(NC(=O)c3ccc(-c4nccs4)cc3)cccc2C1=O | inactive
C[C@@H]1CN([C@H](C)CO)C(=O)c2cc(NC(=O)Cc3ccccc3)ccc2O[C@H]1CN(C)Cc1ccc(Cl)c(Cl)c1 | inactive
C[C@@H]1CN([C@H](C)CO)C(=O)c2cccc(NC(=O)NC3CCCCC3)c2O[C@@H]1CN(C)Cc1ccc(-c2ccccc2)cc1 | inactive
CCOC(=O)c1c[nH]cnc1=O | inactive
CCS(=O)(=O)N1C[C@]2(CCN(CC2)S(=O)(=O)c2cn(cn2)C)c2c(n(c3cc(ccc23)OC)C)[C@@H]1CO | inactive
Cc1c(-c2ccccc2)n(C[C@@H](O)CN)c2ccccc12 | active
C[C@@H]1CCCCO[C@@H](CN(C)S(=O)(=O)c2ccccc2)[C@@H](C)CN([C@@H](C)CO)C(=O)c2cc(NS(C)(=O)=O)ccc2O1 | inactive
Nc1ncnc2nc(N3CCCCC3)[nH]c12 | inactive
Cc1noc(C)c1NC(=O)N(C)C[C@@H]1OCCCC[C@H](C)Oc2ccc(NS(=O)(=O)c3cccs3)cc2C(=O)N([C@H](C)CO)C[C@@H]1C | inactive
C[C@@H]1CN([C@H](C)CO)C(=O)Cc2cc(NC(=O)Cn3cnnn3)ccc2O[C@H]1CN(C)Cc1ccc(C(=O)Nc2ccccc2N)cc1 | inactive
NC(=O)N1C(=O)[C@H]2[C@H](C1=O)[C@H]1C=C(CCCO)[C@@H]2[C@@H](C2CC2)N1Cc1cc2c(cc1Br)OCO2 | inactive
COCc1cn(CC[C@H]2CC[C@@H](NC(=O)CCN3CCCCC3)[C@@H](CO)O2)nn1 | inactive
C[C@@H]1CN([C@@H](C)CO)C(=O)c2cc(NC(=O)c3ccncc3)ccc2O[C@@H](C)CCCCO[C@@H]1CN(C)CC1CCCCC1 | inactive
C[C@H]1CCCCO[C@H](CN(C)C(=O)NC2CCCCC2)[C@@H](C)CN([C@@H](C)CO)C(=O)c2cc(NS(=O)(=O)c3ccccc3)ccc2O1 | inactive

Compound | cytotoxicity call
CN1C(=O)c2cc(NC(=O)C3CCOCC3)ccc2OC[C@H]2O[C@H](CC(=O)NCCc3ccncc3)CC[C@H]21 | inactive
Cc1noc(C)c1S(=O)(=O)N(C)C[C@H]1OCCCC[C@@H](C)Oc2ccc(NS(=O)(=O)c3cn(C)cn3)cc2C(=O)N([C@@H](C)CO)C[C@H]1C | inactive
C/C(=C\CC[C@@H](C)[C@H]1C[C@@H](O)[C@@]2(C)[C@H]3CC[C@H]4C(C)(C)[C@@H](O[C@@H]5O[C@@H](CO[C@H]6O[C@@H](CO)[C@@H](O)[C@@H](O)[C@@H]6O)[C@@H](O)[C@@H](O)[C@@H]5O)CC[C@@]45C[C@@]35C[C@@H](O)[C@]12C)C(=O)O[C@H]1O[C@@H](CO)[C@@H](O)[C@@H]1O | inactive
C[C@H](CO)N1C[C@H](C)[C@H](CN(C)C(=O)c2ccccc2)OCCCC[C@H](C)Oc2ccc(NC(=O)CCC(F)(F)F)cc2C1=O | inactive
COC(=O)CN[C@H]1CCS(=O)(=O)C1 | inactive
C[C@@H]1CN([C@H](C)CO)C(=O)c2cccc(NS(=O)(=O)c3ccccc3)c2O[C@H]1CN(C)C(=O)Nc1cccc2ccccc12 | inactive
O=C(Cn1c(=O)n(-c2ccccc2)c(=O)n1CC(=O)N1CCOCC1)N1CCOCC1 | inactive
C[C@@H]1CN([C@H](C)CO)C(=O)Cc2cc(NC(=O)CCC(F)(F)F)ccc2O[C@@H]1CN(C)S(C)(=O)=O | inactive
O=C(c1ccccc1Cl)N(c1ccc2oc(=O)sc2c1)S(=O)(=O)c1ccc(Br)cc1 | inactive
C[C@@H]1CN([C@@H](C)CO)C(=O)c2cccc(NS(C)(=O)=O)c2O[C@H]1CN(C)Cc1ccc(C(=O)Nc2ccccc2N)cc1 | inactive
C/C=C/C(=O)N1CCC=CC1=O | inactive
Cc1noc(C)c1S(=O)(=O)Nc1ccc2c(c1)CC(=O)N([C@H](C)CO)C[C@@H](C)[C@@H](CN(C)S(=O)(=O)c1ccc(F)cc1)O2 | inactive
C[C@H](CO)N1C[C@H](C)[C@H](CN(C)C(=O)C2CCOCC2)Oc2cc(C#Cc3ccncc3)ccc2S1(=O)=O | inactive
CCC(=O)Nc1ccc2c(c1)C(=O)N(C)C[C@@H](OC)[C@@H](C)CN(C(=O)CN1CCOCC1)[C@H](C)CO2 | inactive
Cc1noc(C)c1NC(=O)N(C)C[C@@H]1OCCCC[C@@H](C)Oc2ccc(NC(=O)C3CCCCC3)cc2C(=O)N([C@@H](C)CO)C[C@@H]1C | inactive
Cc1noc(C)c1S(=O)(=O)Nc1ccc2c(c1)C(=O)N([C@@H](C)CO)C[C@H](C)[C@@H](CN(C)C)OCCCC[C@@H](C)O2 | inactive
C[C@H]1CCCCO[C@@H](CN(C)C(=O)Nc2ccccc2)[C@@H](C)CN([C@@H](C)CO)C(=O)c2cc(NC(=O)Cc3ccccc3)ccc2O1 | inactive
